Test results reported in the supplement of paper PMC4967469.

Legend:
Experiment in all cases: Viability of human cancer cell lines after 72 h of drug (GDSC screen)
[1] = compound: CO[C@@H]1[C@H](N(C)C(=O)c2ccccc2)C[C@H]2O[C@]1(C)n1c3ccccc3c3c4c(c5c6ccccc6n2c5c31)C(=O)NC4 [Midostaurin]; details: top dose 0.512 µM; top dose inferred
Procedure: (§1)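 Human cancer cell lines in 384-well plates, medium with 10% serum, drug for 72 h over a 256-fold dose range (nine 2-fold or five 4-fold steps up to the top dose). Adherent lines were fixed and stained with the nucleic acid dye Syto60, suspension lines read with resazurin; signal relative to control wells, capped at 0 and 100%. One two-parameter sigmoid per drug and line, fitted in a mixed model over all curves with the slope shared within a line.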

[2] = compound: CO[C@@]12[C@H](COC(N)=O)C3=C(C(=O)C(C)=C(N)C3=O)N1C[C@@H]1N[C@@H]12 [Mitomycin C]; details: top dose 16 µM
Procedure: as §1

[3] = compound: Cc1ccc(C(=O)Nc2cccc(C(F)(F)F)c2)cc1Nc1nc(-c2cccnc2)nc2c1cnn2C [NVP-BHG712]; details: top dose 10.24 µM; top dose inferred
Procedure: as §1

[4] = compound: O=C(O)CNC(=O)c1c(O)c2ccccc2n(Cc2ccccc2)c1=O [IOX2]; details: top dose 0.1 µM; top dose inferred
Procedure: as §1

Cell Line	AUC [1]	IC50 [1]	AUC [2]	IC50 [2]	AUC [3]	IC50 [3]	AUC [4]	IC50 [4]
KYSE-270 (oesophagus, adherent)	0.779	178 nM	0.171	124 nM	0.924	> 10200 nM	0.99	> 100 nM
KYSE-180 (oesophagus, adherent)	0.892	> 512 nM	0.24	185 nM	0.891	> 10200 nM	0.987	> 100 nM
NCI-H1793 (lung adenocarcinoma, adherent)	0.883	> 512 nM	0.605	2190 nM	0.965	> 10200 nM	0.964	> 100 nM
GP5d (large intestine, adherent)	0.926	> 512 nM	0.154	102 nM	0.92	> 10200 nM	0.988	> 100 nM
MKN1 (stomach, adherent)	0.868	512 nM	0.406		0.933	> 10200 nM	0.984	> 100 nM
TCCSUP (bladder, adherent)	0.659	94.5 nM	0.392		0.984	> 10200 nM	0.98	> 100 nM
NCI-H2085 (lung adenocarcinoma, adherent)	0.833	368 nM	0.689	3560 nM	0.911	> 10200 nM	0.979	> 100 nM
SK-LU-1 (lung adenocarcinoma, adherent)	0.849	> 512 nM	0.082	< 62.5 nM	0.893	> 10200 nM	0.979	> 100 nM
VM-CUB-1 (bladder, adherent)	0.891	> 512 nM	0.3	280 nM	0.984	> 10200 nM	0.983	> 100 nM
NCI-H1573 (lung adenocarcinoma, adherent)	0.987	> 512 nM	0.635	2340 nM	0.98	> 10200 nM	0.988	> 100 nM
HCE-4 (oesophagus, adherent)	0.868	358 nM	0.152	107 nM	0.992	> 10200 nM	0.991	> 100 nM
ML-1 (thyroid, adherent)	0.467	25.6 nM	0.17	80.1 nM	0.975	> 10200 nM	0.982	> 100 nM
A204 (rhabdomyosarcoma, adherent)	0.661	102 nM	0.21	105 nM	0.604	1350 nM	0.967	> 100 nM
HTC-C3 (thyroid, adherent)	0.906	> 512 nM	0.73	4930 nM	0.831	7610 nM	0.978	> 100 nM
CAL-54 (kidney, adherent)	0.781	245 nM	0.565	1540 nM	0.874	> 10200 nM	0.983	> 100 nM
BFTC-909 (kidney, adherent)	0.836	328 nM	0.182	114 nM	0.984	> 10200 nM	0.985	> 100 nM
MDA-MB-157 (breast, adherent)	0.803	263 nM	0.627	2250 nM	0.987	> 10200 nM	0.965	> 100 nM
GAMG (glioma, adherent)	0.855	440 nM	0.352	381 nM	0.814	5900 nM	0.984	> 100 nM
MFE-319 (endometrium, adherent)	0.918	> 512 nM	0.45	733 nM	0.945	> 10200 nM	0.976	> 100 nM
U031 (kidney, adherent)	0.79	238 nM	0.356	392 nM	0.933	> 10200 nM	0.961	> 100 nM
PL18 (pancreas, adherent)	0.785	218 nM	0.235	171 nM	0.958	> 10200 nM	0.851	76.2 nM
H2804 (mesothelioma, adherent)	0.888	> 512 nM	0.163	81.4 nM	0.965	> 10200 nM	0.952	> 100 nM
LU-99A (large cell lung carcinoma, adherent)	0.852	388 nM	0.272	226 nM	0.919	> 10200 nM	0.986	> 100 nM
BHY (head and neck, adherent)	0.883	> 512 nM	0.129	65.9 nM	0.887	> 10200 nM	0.956	> 100 nM

Cell Line	AUC [1]	IC50 [1]	AUC [2]	IC50 [2]	AUC [3]	IC50 [3]	AUC [4]	IC50 [4]
NCI-H1299 (large cell lung carcinoma, adherent)	0.751	203 nM	0.306	249 nM	0.872	> 10200 nM	0.961	> 100 nM
SW837 (large intestine, adherent)	0.983	> 512 nM	0.306	236 nM	0.946	> 10200 nM	0.98	> 100 nM
HPAF-II (pancreas, adherent)	0.978	> 512 nM	0.527	1210 nM	0.836	10000 nM	0.978	> 100 nM
SW900 (lung squamous cell carcinoma, adherent)	0.885	> 512 nM	0.468	806 nM	0.904	> 10200 nM	0.979	> 100 nM
RD (rhabdomyosarcoma, adherent)	0.907	> 512 nM	0.565	1530 nM	0.771	4300 nM	0.976	> 100 nM
HLE (liver, adherent)	0.829	295 nM	0.422	621 nM	0.949	> 10200 nM	0.984	> 100 nM
BEN (non-small cell lung carcinoma, adherent)	0.927	> 512 nM	0.482	887 nM	0.949	> 10200 nM	0.985	> 100 nM
TGBC24TKB (biliary tract, adherent)	0.947	> 512 nM	0.435	675 nM	0.924	> 10200 nM	0.986	> 100 nM
NCI-H196 (small cell lung carcinoma, adherent)	0.988	> 512 nM	0.685	3390 nM	0.981	> 10200 nM	0.987	> 100 nM
A673 (rhabdomyosarcoma, adherent)	0.931	> 512 nM	0.456	769 nM	0.988	> 10200 nM	0.988	> 100 nM
ChaGo-K-1 (non-small cell lung carcinoma, adherent)	0.93	> 512 nM	0.554	1440 nM	0.944	> 10200 nM	0.981	> 100 nM
COR-L105 (lung adenocarcinoma, adherent)	0.809	341 nM	0.571	1630 nM	0.749	3980 nM	0.979	> 100 nM
A172 (glioma, adherent)	0.828	300 nM	0.386	492 nM	0.947	> 10200 nM	0.969	> 100 nM
OAW-28 (ovary, adherent)	0.863	> 512 nM	0.402	501 nM	0.817	7760 nM	0.963	> 100 nM
SW156 (kidney, adherent)	0.841	417 nM	0.432	636 nM	0.917	> 10200 nM	0.983	> 100 nM
RERF-GC-1B (stomach, adherent)	0.884	> 512 nM	0.649	2730 nM	0.814	6400 nM	0.983	> 100 nM
SNU-398 (liver, adherent)	0.687	109 nM	0.487	921 nM	0.824	6390 nM	0.983	> 100 nM
SK-CO-1 (large intestine, adherent)	0.86	389 nM	0.279	247 nM	0.722	2610 nM	0.979	> 100 nM
COLO-792 (melanoma, adherent)	0.813	272 nM	0.574	1590 nM	0.988	> 10200 nM	0.978	> 100 nM
OSC-19 (head and neck, adherent)	0.896	> 512 nM	0.425	616 nM	0.912	> 10200 nM	0.985	> 100 nM
HO-1-N-1 (head and neck, adherent)	0.941	> 512 nM	0.356	414 nM	0.984	> 10200 nM	0.987	> 100 nM
BPH-1 (prostate, adherent)	0.863	> 512 nM	0.184	99.5 nM	0.953	> 10200 nM	0.98	> 100 nM
IM-95 (stomach, adherent)	0.831	355 nM	0.356	388 nM	0.817	6200 nM	0.984	> 100 nM
769-P (kidney, adherent)	0.725	149 nM	0.06	< 62.5 nM	0.906	> 10200 nM	0.971	> 100 nM

By IC50 is meant the dose at which the fit gives 50% viability; a fit beyond the top or the lowest dose is shown as a bound at that dose. The AUC spans the tested range (256-fold, ending at the top dose) of the same fit: 1 means no effect, lower means more sensitive. For some of these results: An inferred top dose was calculated from the reported fits.
